Measured values: PubChem BioAssay AID686978 (National Center for Advancing Translational Sciences (NCATS), 2013)
Values joined by “and” are separate entries in the source; they are usually repeats but may differ in a detail not shown here. Identical values can stand only once. In all, about 420,000 compounds went through this assay and about 64,000 (15%) were called active. Inconclusive results, whose numbers are uncertain, are shown with a selection of clear calls. Calls come from the whole dose curve; as a rule, active = well fitted inhibition curve with a large enough effect; inconclusive = small, poorly fitted or top-dose-only effect; inactive = flat fitted curve, though single readings scatter. Potencies of inconclusive entries are left out as doubtful fits. The source holds several records for some structures; these can differ, active in one and inactive in another.

Assay: qHTS for Inhibitors of human tyrosyl-DNA phosphodiesterase 1 (TDP1): qHTS in cells in absence of CPT; note: nearly all actives have a fitted effect of over 55% in size
Conditions: DT40 Tdp1-/- hTDP1 cells, no CPT, ATP luminescence, 48 h; activity change, negative = growth inhibition: at 46.2 µM (top of the series) unless noted
How it was run: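 Luminescent ATP content (CellTiter-Glo) served as the growth readout. Knockout chicken DT40 cells expressing human TDP1 were exposed to compounds without camptothecin for a minimum 48 hr at 37 °C.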
% is set by controls: 0 for no effect and ±100 for the full control effect; potency is the fitted concentration of half-maximal effect; tags give direction and shape of the fitted curve.

SMILES | Potency | activity change, negative = growth inhibition
COc1cc(S(=O)(=O)Nc2ccc(Br)cc2)ccc1N | inconclusive [inhibitor, single point] | 
Cc1ccc(CNC(=O)CN(c2ccc(C(C)C)cc2)S(=O)(=O)c2c(C)n[nH]c2C)cc1 | inconclusive [inhibitor, single point] | 
CCN1CC2=C(OC(N)=C(C#N)C2c2ccccc2)/C(=C\c2ccccc2)C1 (configuration not stated) | inconclusive [inhibitor, single point] | 
C[C@@H]1CN([C@@H](C)CO)C(=O)c2c(c3ccccc3n2C)-c2ccccc2CO[C@H]1CN(C)C(=O)[C@H](Cc1ccccc1)N(C)C | active: 20.6 µM | 
O=C(NCc1ccco1)Nc1ccc(Br)cc1 | inconclusive [inhibitor, single point] | 
Cc1ccc2[nH]c3c(c2c1)CCC3=O |  | inactive: -10.4%
COc1ccccc1CNC(=O)CN1C(=O)CSc2c1c(C)nn2-c1ccccc1 | inconclusive [inhibitor, single point] | 
CCOC(=O)C[C@H]1c2cc(C(F)(F)F)ccc2S(=O)(=O)N1C(C)C | inconclusive [inhibitor, single point] | inconclusive: -46.8% [inhibitor]
CC1CCc2c(sc3nc(CSc4ncn[nH]4)[nH]c(=O)c23)C1 (configuration not stated) | inconclusive [inhibitor, single point] | 
O=S1(=O)C=C(SCc2cccc(Cl)c2)Nc2ccccc21 |  | inactive: -27.1%
COc1cc(CN(C)CC2CCCN(CCc3ccccc3F)C2)cc(Cl)c1OC (configuration not stated) | active: 25.9 µM | 
COC(=O)C1=C(Nc2ccc(C)cc2)C=C(C)C(C(=O)OC)C1c1ccc(F)cc1 (configuration not stated) | inconclusive [inhibitor, single point] | 
O=C(CN(c1ccc(F)cc1)S(=O)(=O)c1ccc2c(c1)OCCO2)Nc1ccccc1 |  | inactive: -15.3%
CC(NC1c2ccccc2-c2ccccc21)c1ccccc1 (configuration not stated) | inconclusive [inhibitor, single point] | 
CSc1ccc(CN2CCC(n3nccc3NC(=O)c3ccccc3C)CC2)cc1 | inconclusive [inhibitor, single point] | 
COc1ccc(S(=O)(=O)Cc2ccc(C(=O)N3CCN(c4ncccn4)CC3)o2)cc1 | inconclusive [inhibitor, single point] | 
COc1cc(OC)cc(-c2sc3ccc(OC)cc3c2-c2ccc(OCCN3CCCCC3)cc2)c1 | inconclusive [inhibitor, single point] | 
COc1ccc(-c2cccc3c2NC(=O)C3=O)cc1OC | active: 14.6 µM | 
CN(c1ccccc1)S(=O)(=O)c1cccc(C(=O)NCC(c2cccs2)N2CCOCC2)c1 (configuration not stated) | active: 16.4 µM | 
CC(=O)Nc1ccc(Nc2c([N+](=O)[O-])cc(S(C)(=O)=O)cc2[N+](=O)[O-])cc1 | inconclusive [inhibitor, single point] | 
CC(C(=O)NCc1ccc(F)cc1)n1ccc2cc(S(=O)(=O)N3CCCC3)ccc21 (configuration not stated) | inconclusive [inhibitor, single point] | 
CC(C)c1ccc(CN2CCC2(C)C(=O)Nc2cnc3ccccc3c2)cc1 (configuration not stated) | active: 25.9 µM | 

SMILES | Potency | activity change, negative = growth inhibition
CCCC(=O)Nc1cc(C)c(NC(=O)c2ccco2)cn1 |  | inactive: -6.02%
CCOC(=O)C1=CCN(S(=O)(=O)c2ccc(C)cc2)C1c1ccc(Br)cc1 (configuration not stated) | inconclusive [inhibitor, single point] | 
Cc1ccc(CCNC(=O)c2cc(-c3ccncc3)nc3ccccc23)cc1 | inconclusive [inhibitor, partial curve] | 
CCCC(=O)Nc1cc2c3c(c1)CC(=O)N3CCC2 |  | inconclusive: -31.1% [inhibitor]
c1ccc(-c2nccc(-c3ccco3)n2)nc1 | inconclusive [inhibitor, single point] | 
O=C(NCCc1ccccc1)c1ccccc1NC(=O)C1CC=CCC1C(=O)O (configuration not stated) | active: 16.4 µM | 
C[C@@H](C(=O)Nc1cccc(S(=O)(=O)N2CCOCC2)c1)N1C(=O)C2CC=CCC2C1=O (some centres not stated) |  | inactive: -20.4%
Cc1cc(C)c(CN2CCC(n3nccc3NC(=O)CCOc3ccccc3)CC2)cc1C | inconclusive [inhibitor, single point] | 
CC(CCC(C)C(C)(C)C)[C@@H]1CC[C@H]2C3C[C@H](OS(O)(=S)=S)[C@H]4C[C@H](OS(O)(=S)=S)[C@@H](OS(O)(=S)=S)C[C@]4(C)[C@H]3CC[C@]12C (some centres not stated) (tested in a mixture with another compound) | inconclusive [inhibitor, partial curve] | 
CC(=O)N(C(C)=O)c1ccc2nc(C)[nH]c(=O)c2c1 |  | inactive: -17.9%
COCCCN1C(=O)C(CC(=O)NC(c2ccccc2)c2ccccc2)CC(C(=O)N(C(C)C)C(C)C)=C1C (configuration not stated) | inconclusive [inhibitor, single point] | 
COc1cc2c(cc1OC)C(COc1ccccc1OC)N(C(=O)c1ccco1)CC2 (configuration not stated) |  | inactive: -1.77%
COc1cc(/C=N/Nc2nc3c(c(=O)n(C)c(=O)n3C)n2Cc2ccccc2)ccc1OC(=O)c1ccco1 | active: 5.17 µM | 
COc1ccc(-n2ncc3c2CC(C)(C)CC3NC(=O)CCN2CCCC2=O)cc1 (configuration not stated) | inconclusive [inhibitor, partial curve] | 
Cc1ccc(S(=O)(=O)N(C)C)cc1NC(=O)C(C)N(C)Cc1sccc1C (configuration not stated) | active: 20.6 µM | 
Cn1nc(C(C)(C)C)cc1C(=O)N1CCCC(c2cc(C(=O)Nc3ccccc3Cl)no2)C1 (configuration not stated) | active: 23.1 µM | 
Cc1ccccc1Cn1nc(C)c(NC(=O)c2cc(-c3ccc(F)cc3)on2)c1C | inconclusive [inhibitor, full curve, poor fit] | 
CCNC(=O)Cn1c(=O)c2c(ncn2Cc2ccccc2)n(Cc2ccccc2)c1=O | inconclusive [inhibitor, single point] | 
O=C(C1CCCN(S(=O)(=O)c2cccc3nonc23)C1)N1CCN(c2cccc(Cl)c2)CC1 (configuration not stated) | active: 23.1 µM | 
COC(=O)[C@]12CCCCC=C1N(Cc1ccc3c(c1)OCO3)C(=O)[C@H](CC(=O)N1CCSCC1)C2 | inconclusive [inhibitor, single point] | 
O=C(CNS(=O)(=O)c1ccc(Br)s1)N1CCC(N2CCCCC2)CC1 |  | inactive: -1.58%
CCCn1c(=N)c(C(=O)NCc2cccnc2)cc2c(=O)n3cc(C)ccc3nc21 |  | inactive: -11.8%

SMILES | Potency | activity change, negative = growth inhibition
CC(NC(=O)c1ccc2ccccc2n1)c1ccc(S(N)(=O)=O)cc1 (configuration not stated) |  | inactive: -21.7%
CC(C)n1c(=O)c2ccccc2n1S(C)(=O)=O |  | inactive: -13.2%
CCc1ccc(CSc2nc(-c3ccccc3OC)nc3c2Cc2c(CO)cnc(C)c2O3)cc1 | inconclusive [inhibitor, partial curve, poor fit] | 
CCCCN(C(=O)c1ccc2ccccc2c1)c1c(N)n(CCCC)c(=O)[nH]c1=O | inconclusive [inhibitor, single point] | 
Cc1cccc(CSCCNC(=O)c2ccc(N(C)S(=O)(=O)c3ccccc3)cc2)c1 | inconclusive [inhibitor, single point] | 
CNC(=O)[C@H]1O[C@@H](n2cnc3c(NCc4cccc(I)c4)ncnc32)[C@H](O)[C@@H]1O | inactive and active: 16 µM | 
CCn1cc(C2N3CC4(CC)CN2CC(CC)(C3)C4=O)c2ccccc21 (configuration not stated) | active: 18.4 µM | 
O=S1(=O)[C@H]2C[C@@H]3C=C[C@@]2(CN1Cc1ccc(Cl)cc1)O3 | inactive | 
O=C(CN1CCSc2ccccc21)N1CCN(c2ccccc2)CC1 | inconclusive [inhibitor, single point] | 
C[C@H](CO)N1C[C@H](C)[C@@H](CN(C)C(=O)Nc2ccccc2)Oc2cc(Br)ccc2S1(=O)=O | inconclusive [inhibitor, partial curve, poor fit] | 
COC(=O)c1ccc2c(=O)n(CCCCCC(=O)NCc3ccccc3)c(=O)[nH]c2c1 | inactive | 
COc1ccccc1N1CCN(C(=O)c2ccc(COc3cccc4c3OC(C)(C)C4)cc2)CC1 | active: 16.4 µM | 
O=C(/C=C/c1ccc(Cl)cc1)N1CCN(c2ccc([N+](=O)[O-])c(N3CCOCC3)c2)CC1 | inconclusive [inhibitor, single point] | 
Cc1cccc(CNc2nc(-c3cccc(NS(C)(=O)=O)c3)nc3ccccc23)c1 | inconclusive [inhibitor, single point] | 
COc1ccccc1CNC(=O)C1CCCN(c2nn3cc(-c4ccc(F)cc4)nc3s2)C1 (configuration not stated) | inconclusive [inhibitor, single point] | 
COc1ccc(C(=O)Nc2c(N)nc(SCC(=O)N3CCC(C)CC3)[nH]c2=O)cc1 |  | inactive: -6.16%
COC(=O)CNC(c1ccccc1)c1cc(Br)ccc1NC(=O)OCc1ccccc1 (configuration not stated) | inconclusive [inhibitor, partial curve] | 
O=S(=O)(c1ccccc1)N1CCN(C(=S)NCCCN2CCOCC2)CC1 |  | inactive: -17.8%
CCN(CC)C[C@@H]1CCCCN1CC(=O)N1c2ccccc2C(=O)Nc2cccnc21 |  | inactive: -1.14%
CCc1c(C)nc(N2CCN(c3ccccc3)CC2)[nH]c1=O | inconclusive [inhibitor, single point] | 
CC(C)(C)N(Cc1ccccc1)C(=O)COC(=O)c1cccc([N+](=O)[O-])c1 | inconclusive [inhibitor, single point] | 
CCOC(=O)c1cnc2cc(C(F)(F)F)ccc2c1N1CCN(c2ccc(F)cc2)CC1 | active: 20.6 µM | 
